Experimental data: the supplement of paper PMC3334620
Over roughly 33,000 sequences, “E-score (-0.5 to 0.5)” has its median near -0.036; the highest 2% begin near 0.37. The list shows a part of the results.

target: T1, Yer064c (UniProt P40041); assay: PBM E-score (8-mer binding enrichment) (E-score (-0.5 to 0.5)); higher = stronger / more preferred TF binding; most listed sequences are background and not binding sites; details: protein concentration: 200 nM; construct: GST-full length
T1 sequence: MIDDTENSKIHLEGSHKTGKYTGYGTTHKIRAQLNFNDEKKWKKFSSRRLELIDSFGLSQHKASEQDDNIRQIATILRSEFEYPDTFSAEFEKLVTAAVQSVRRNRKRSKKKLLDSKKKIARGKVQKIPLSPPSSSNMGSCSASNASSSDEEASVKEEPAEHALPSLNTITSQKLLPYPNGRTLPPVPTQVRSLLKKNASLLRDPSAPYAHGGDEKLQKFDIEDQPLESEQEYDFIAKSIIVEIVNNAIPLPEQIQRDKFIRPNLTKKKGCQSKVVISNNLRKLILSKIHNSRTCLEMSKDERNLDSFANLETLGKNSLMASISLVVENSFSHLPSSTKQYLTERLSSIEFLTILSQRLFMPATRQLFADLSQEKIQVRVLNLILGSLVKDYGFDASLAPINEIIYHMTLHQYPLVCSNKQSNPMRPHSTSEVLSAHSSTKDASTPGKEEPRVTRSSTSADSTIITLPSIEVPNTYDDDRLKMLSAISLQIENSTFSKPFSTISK
Summary of the method: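 Using PURExpress in vitro transcription/translation, GST-tagged yeast transcription factors were made in full-length or DNA-binding-domain form. These were applied at about 100-200 nM to double-stranded universal all-10-mer Agilent arrays, and bound protein was detected with fluorescent anti-GST. Scans were normalised with masliner before the Universal PBM Analysis Suite assigned E-scores to ungapped eight-base words pooled with their reverse complements.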

| Sequence | PBM E-score |
| --- | --- |
| CCGATCAC | 0.112 |
| CTAGGGCC | -0.0622 |
| TAAACCGA | 0.136 |
| CGTGGGGA | -0.0579 |
| GTTCGTCA | -0.18 |
| AGCCCTGC | -0.204 |
| AGGGCCAT | -0.302 |
| AACGGCTT | -0.309 |
| CTCATGTC | 0.253 |
| GCAGGTGA | 0.113 |
| AGCCATGG | 0.268 |
| AGCCTTCC | -0.182 |
| ATCGGTTC | -0.0981 |
| TACGGCTA | -0.145 |
| CAGATGAG | 0.325 |
| GGGGCCAA | -0.182 |
| AGAGCTGG | -0.0503 |
| GGAGCCCA | -0.126 |
| GACTGTAA | 0.226 |
| GCCTTTGA | -0.0905 |
| ACTTAGGA | 0.21 |
| GTAGTTAA | 0.173 |
| CGGGCCCG | -0.108 |
| CCGCTAAG | -0.0577 |
| AGCTCCGA | -0.0181 |

| Sequence | PBM E-score |
| --- | --- |
| CAGGCCAC | -0.151 |
| AGTAGATG | 0.0194 |
| CAGACGCG | -0.179 |
| CTATTCAA | 0.05 |
| AGGGGTAC | -0.142 |
| GTGACACA | 0.107 |
| GGGAGTAA | 0.00383 |
| ACCGGGAA | 0.00229 |
| AGCACGCG | -0.0592 |
| AGCTTGGC | -0.115 |
| ACTCATTG | 0.382 |
| GTAGCCCA | -0.0617 |
| GCAGGGGA | -0.21 |
| AGCCTGGC | -0.219 |
| CGGAACGC | -0.0754 |
| CCGGAGTC | 0.373 |
| CGGACCTC | -0.265 |
| GCTATAGA | -0.00628 |
| CGAGACTA | 0.37 |
| CGCTTGGC | -0.124 |
| GATGCGGC | -0.227 |
| AGTTTAAC | -0.0695 |
| AGTAGACC | 0.00168 |
| CTGCCTGC | -0.278 |
| CACCCCTA | -0.109 |

| Sequence | PBM E-score |
| --- | --- |
| CACCGCCG | 0.0102 |
| CAATATGA | 0.215 |
| ATACCCTA | -0.00778 |
| AATCTCTA | 0.0427 |
| CGTTGCAA | 0.0224 |
| GCTAAGAC | 0.137 |
| CAAGCTCG | -0.167 |
| ATAAACGC | -0.233 |
| CCGTTGGC | -0.245 |
| CTGTATCC | -0.163 |
| GTGTTTTA | -0.00792 |
| CCTCCGGA | -0.0269 |
| AACGAGGT | 0.0692 |
| ATTAACCA | 0.24 |
| CCGAGCAG | 0.103 |
| AACACCAG | -0.153 |
| TTTCAAAA | 0.0533 |
| AACTGGTA | -0.259 |
| TAGGGGGA | -0.199 |
| AGTACACT | 0.144 |
| GTTCCGAA | -0.0766 |
| TCAGCAGA | 0.214 |
| CTATATTC | 0.0461 |
| ACGAGGCT | 0.0286 |
| CTAATGGA | 0.0291 |

| Sequence | PBM E-score |
| --- | --- |
| CCCCGATC | -0.242 |
| GGGCATGA | 0.217 |
| GTCCCTCA | -0.0573 |
| CGGTCTCA | 0.0693 |
| GTCAAGCA | -0.0363 |
| AGTTAAAT | 0.00649 |
| ATTCAACC | 0.111 |
| AGTCGCTG | 0.303 |
| TAAGTGGA | 0.198 |
| ATCTCCAA | 0.0358 |
| CCGGAAGC | -0.385 |
| ACAGTAAG | 0.125 |
| AAGTGAGA | 0.124 |
| TAACTGCA | -0.0363 |
| CTACAATA | 0.0828 |
| CGCTCGTA | 0.074 |
| TAGCGGGA | -0.235 |
| GCTACAAC | 0.0558 |
| TCGATGAA | 0.0335 |
| ATCATCAA | 0.285 |
| ATTCTCTC | -0.07 |
| GAGACGAA | -0.0519 |
| CGAGACCC | -0.221 |
| CGTGTTCC | 0.077 |
| CTTCGTTC | -0.252 |

| Sequence | PBM E-score |
| --- | --- |
| GCGTCTCC | -0.246 |
| GAAAAAAC | -0.0356 |
| CTTTCTCA | 0.152 |
| ATAATGAT | 0.242 |
| AGGTGCCA | -0.163 |
| CTTGATGC | -0.159 |
| AGATGGAG | -0.11 |
| CACCTGGC | -0.0538 |
| GAGTAGGC | 0.0237 |
| GCGGTAGC | -0.199 |
| ATACCACA | -0.165 |
| ATACGGTA | 0.0045 |
| ACCCAACC | -0.00195 |
| TCGGCAGA | 0.106 |
| AAGAACTT | 0.0118 |
| CCAATCTC | -0.0242 |
| ACCTAACC | -0.0292 |
| GTATCTTA | 0.0828 |
| CCAAATAA | 0.0058 |
| ATGGTATG | 0.0703 |
| AAATCAAG | 0.0497 |
| ACATGACA | 0.155 |
| ACCGCTTC | -0.207 |
| CCAGGTGA | 0.0235 |
| AGGGGGAC | -0.0973 |

| Sequence | PBM E-score |
| --- | --- |
| CTACGTAA | -0.0165 |
| ATGCCTGC | -0.252 |
| CATACAGA | 0.0209 |
| ATGGAGGC | -0.342 |
| AAGTTCGA | 0.0338 |
| CGAGCTTA | -0.145 |
| CCTGATCC | -0.00892 |
| GCCGTCAA | -0.207 |
| AAGCTTGT | -0.146 |
| GTTTGGCA | -0.0961 |
| CTTCTGCC | -0.225 |
| AGCGACAA | -0.0949 |
| AAGGTTTG | 0.0818 |
| CCTATCTC | -0.101 |
| GACGGCTC | -0.116 |
| CTGGAGCA | -0.309 |
| TATGGCAA | -0.153 |
| AAATACCC | -0.0319 |
| GCAAAGCA | -0.135 |
| GCTCGGCC | -0.296 |
| AATCGGGA | 0.0737 |
| CTCCCGTC | -0.0226 |
| ACAGTACT | 0.106 |
| AGGGCTCA | 0.0211 |
| CTATCGAC | -0.149 |

| Sequence | PBM E-score |
| --- | --- |
| GCCGAAAA | 0.0564 |
| CTGTACGC | -0.0505 |
| CTAGTGCA | -0.0895 |
| AGTCAACT | 0.424 |
| CAATCGGC | 0.04 |
| ACAAATTC | -0.0748 |
| CCTGACAG | -0.0099 |
| GCCGCACC | -0.218 |
| GCCAAACA | -0.0582 |
| TGTGCCAA | 0.0362 |
| CAGTATTC | -0.131 |
| CACAATAA | 0.241 |
| CCAAGCTC | -0.22 |
| CGCGGTAA | -0.114 |
| AGGGCCTC | -0.235 |
| AAGGCTGT | -0.161 |
| GACCCTAC | -0.282 |
| GGTCGAAA | -0.231 |
| ATAGCGAT | -0.205 |
| GGTACTCA | 0.381 |
| CTTTTGTC | -0.173 |
| TATCACAA | 0.0279 |
